# Results reported in PMC12820563.
# The list shows a part of the results. The list includes weakly bound sequences.
# Target: T1, MBP-FoxP3dN (UniProt Q99JB6)
# T1 sequence: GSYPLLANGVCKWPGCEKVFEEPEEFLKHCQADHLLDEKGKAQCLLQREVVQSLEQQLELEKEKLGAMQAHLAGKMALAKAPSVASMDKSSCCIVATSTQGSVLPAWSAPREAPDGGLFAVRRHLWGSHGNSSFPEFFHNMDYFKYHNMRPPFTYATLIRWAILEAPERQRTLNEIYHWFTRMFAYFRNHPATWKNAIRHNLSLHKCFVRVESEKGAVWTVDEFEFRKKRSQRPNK
# Test: PD-seq (MBP pull-down with sequencing)
# Conditions: 20 mM Tris-HCl pH 7.5, 100 mM NaCl, 1.5 mM MgCl2, 0.4 uM protein, 0.1 uM dsDNA library, 30 min, room temperature, amylose pull-down; high values mean tight binding; double strand, one strand shown
row,Sequence,binding signal (RPM ratio (pull-down/input))
1,GATGATTGTTCTCCCAGCTGATGAATTCGTCGACTCGAGTAAACAAATTTTCCTAATCTTTCTGTTCAAGCGCCATCTAC,0.351
2,GATGATTGTTCTCCCAGCTGATGAATTTGCGGTTTCGAGTAAACAAATTTTCCTAATCTTTCTGTTCAAGCGCCATCTAC,1.42
3,GATGATTGTTCTCCCAGCTGATGAATTGGTAAGATCGAGTAAACAAATTTTCCTAATCTTTCTGTTCAAGCGCCATCTAC,0.265
4,GATGATTGTTCTCCCAGCTGATGAATTAAAAAGATCGAGTAAACAAATTTTCCTAATCTTTCTGTTCAAGCGCCATCTAC,0.167
5,GATGATTGTTCTCCCAGCTGATGAATTTACGGTGTCGAGTAAACAAATTTTCCTAATCTTTCTGTTCAAGCGCCATCTAC,0.764
6,GATGATTGTTCTCCCAGCTGATGAATTCTTTAACTCGAGTAAACAAATTTTCCTAATCTTTCTGTTCAAGCGCCATCTAC,0.201
7,GATGATTGTTCTCCCAGCTGATGAATTAATTAACTCGAGTAAACAAATTTTCCTAATCTTTCTGTTCAAGCGCCATCTAC,0.403
8,GATGATTGTTCTCCCAGCTGATGAATTTACGCACTCGAGTAAACAAATTTTCCTAATCTTTCTGTTCAAGCGCCATCTAC,0.784
9,GATGATTGTTCTCCCAGCTGATGAATTCTACCAGTCGAGTAAACAAATTTTCCTAATCTTTCTGTTCAAGCGCCATCTAC,0.207
10,GATGATTGTTCTCCCAGCTGATGAATTGTTCAGTTCGAGTAAACAAATTTTCCTAATCTTTCTGTTCAAGCGCCATCTAC,0.356
11,GATGATTGTTCTCCCAGCTGATGAATTGTGCTACTCGAGTAAACAAATTTTCCTAATCTTTCTGTTCAAGCGCCATCTAC,2.9
12,GATGATTGTTCTCCCAGCTGATGAATTCTCCCTTTCGAGTAAACAAATTTTCCTAATCTTTCTGTTCAAGCGCCATCTAC,0.236
13,GATGATTGTTCTCCCAGCTGATGAATTTGCACTGTCGAGTAAACAAATTTTCCTAATCTTTCTGTTCAAGCGCCATCTAC,0.816
14,GATGATTGTTCTCCCAGCTGATGAATTCGTAACTTCGAGTAAACAAATTTTCCTAATCTTTCTGTTCAAGCGCCATCTAC,0.576
15,GATGATTGTTCTCCCAGCTGATGAATTGTCTTTTTCGAGTAAACAAATTTTCCTAATCTTTCTGTTCAAGCGCCATCTAC,0.73
16,GATGATTGTTCTCCCAGCTGATGAATTCAGCAGGTCGAGTAAACAAATTTTCCTAATCTTTCTGTTCAAGCGCCATCTAC,0.471

row,Sequence,binding signal (RPM ratio (pull-down/input))
1,GATGATTGTTCTCCCAGCTGATGAATTCCGGTCGTCGAGTAAACAAATTTTCCTAATCTTTCTGTTCAAGCGCCATCTAC,0.394
2,GATGATTGTTCTCCCAGCTGATGAATTCAGTCCCTCGAGTAAACAAATTTTCCTAATCTTTCTGTTCAAGCGCCATCTAC,0.438
3,GATGATTGTTCTCCCAGCTGATGAATTCTTCACCTCGAGTAAACAAATTTTCCTAATCTTTCTGTTCAAGCGCCATCTAC,0.246
4,GATGATTGTTCTCCCAGCTGATGAATTGGAATCGTCGAGTAAACAAATTTTCCTAATCTTTCTGTTCAAGCGCCATCTAC,0.354
5,GATGATTGTTCTCCCAGCTGATGAATTAGTTGCTTCGAGTAAACAAATTTTCCTAATCTTTCTGTTCAAGCGCCATCTAC,3.43
6,GATGATTGTTCTCCCAGCTGATGAATTTAAATTTTCGAGTAAACAAATTTTCCTAATCTTTCTGTTCAAGCGCCATCTAC,0.292
7,GATGATTGTTCTCCCAGCTGATGAATTCACCGATTCGAGTAAACAAATTTTCCTAATCTTTCTGTTCAAGCGCCATCTAC,0.28
8,GATGATTGTTCTCCCAGCTGATGAATTAAAGAGCTCGAGTAAACAAATTTTCCTAATCTTTCTGTTCAAGCGCCATCTAC,0.206
9,GATGATTGTTCTCCCAGCTGATGAATTGACGTCTTCGAGTAAACAAATTTTCCTAATCTTTCTGTTCAAGCGCCATCTAC,0.448
10,GATGATTGTTCTCCCAGCTGATGAATTATGCTAATCGAGTAAACAAATTTTCCTAATCTTTCTGTTCAAGCGCCATCTAC,0.83
11,GATGATTGTTCTCCCAGCTGATGAATTCGACTATTCGAGTAAACAAATTTTCCTAATCTTTCTGTTCAAGCGCCATCTAC,0.481
12,GATGATTGTTCTCCCAGCTGATGAATTCTTCGGGTCGAGTAAACAAATTTTCCTAATCTTTCTGTTCAAGCGCCATCTAC,0.219
13,GATGATTGTTCTCCCAGCTGATGAATTGTATATGTCGAGTAAACAAATTTTCCTAATCTTTCTGTTCAAGCGCCATCTAC,3.17
14,GATGATTGTTCTCCCAGCTGATGAATTGGCATATTCGAGTAAACAAATTTTCCTAATCTTTCTGTTCAAGCGCCATCTAC,0.904
15,GATGATTGTTCTCCCAGCTGATGAATTTGATTAGTCGAGTAAACAAATTTTCCTAATCTTTCTGTTCAAGCGCCATCTAC,3.8
16,GATGATTGTTCTCCCAGCTGATGAATTCCCGGATTCGAGTAAACAAATTTTCCTAATCTTTCTGTTCAAGCGCCATCTAC,0.183
